Values marked as one replicate rest on one cluster of the flow cell; about a third of the high ones do not repeat.
Test system: ATP
Test: switch fluorescence ratio, 500 uM ATP over buffer (Cy3 cluster intensity, sum of 5 cycles each) (fold (ratio)); higher = stronger signal-on switching upon ATP binding; sequences stand for … in TCGTCGGCAGCGTCAGATGTGTATAAGAGACAGTTTTTTTTTTTTTTTTTTTTTTTTT…TC
Conditions: aptamer strand: ATP DNA aptamer (quencher-CACCTGGGGGAGTATTGCGGAGGAAGG + anchor), 100 nM annealed; ATP concentration: 500 uM; one replicate
How it was run: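 Exposure to 500 uM ATP lasted 15 min at 22 °C before imaging, and a selection-buffer image was taken beforehand, for Cy3-labelled switching-strand clusters on a modified Illumina MiSeq flow-cell annealed to 100 nM quencher-labelled ATP aptamer. Five buffer/ATP cycles were run with NaOH stripping and re-annealing between them. The fluorescence ratio per cluster is summed target-cycle over summed buffer-cycle Cy3 intensity, averaged per switch-domain sequence. Clusters outside 100-1000 RFU were excluded.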

ATAATAAGAA
switch fluorescence ratio: 0.993

GCGGGAATG
switch fluorescence ratio: 1.01

GACCTTATTC
switch fluorescence ratio: 1.13

ATGATGTAA
switch fluorescence ratio: 0.971

TAGGGAAACA
switch fluorescence ratio: 0.999

TCTTAGGTAT
switch fluorescence ratio: 1

TATATTAGTG
switch fluorescence ratio: 1.02

CTGACAAAA
switch fluorescence ratio: 2.11

AAAGAGAAGC
switch fluorescence ratio: 1.03

AACTCATCTT
switch fluorescence ratio: 1.03

TTATGAATAA
switch fluorescence ratio: 1.03

CGGACCAGGG
switch fluorescence ratio: 0.985

GACGCCGCAG
switch fluorescence ratio: 4.44

GAGTTATCTG
switch fluorescence ratio: 1.06

TAACCGTTTT
switch fluorescence ratio: 1.02

CTTTACACTT
switch fluorescence ratio: 1.05

CTTGGTCCCC
switch fluorescence ratio: 1.05

GGTTGGCGTA
switch fluorescence ratio: 0.979

TCCTGGGTAC
switch fluorescence ratio: 1.26

ATCTGACAGT
switch fluorescence ratio: 1.03

TCCGTTAGCC
switch fluorescence ratio: 1.72

ATAGGTCTAA
switch fluorescence ratio: 1

CCAGTTCGCT
switch fluorescence ratio: 1.05

CAGGGTAGCA
switch fluorescence ratio: 0.987

GTCCCAAATG
switch fluorescence ratio: 1.07

ATGCGAAGGG
switch fluorescence ratio: 1.03

GACACCTGAC
switch fluorescence ratio: 2.3

ATCTGTAAGC
switch fluorescence ratio: 1.07

CTGCTCGCAT
switch fluorescence ratio: 3.52

CGACATAGAC
switch fluorescence ratio: 3.03

TATGGCAGCA
switch fluorescence ratio: 1.03

GCCACGGCCG
switch fluorescence ratio: 1.02

TCGGGCTCTA
switch fluorescence ratio: 1.03

TCGGAGTATT
switch fluorescence ratio: 1.15

TGGACACATT
switch fluorescence ratio: 1.06

TTAACATGAG
switch fluorescence ratio: 1.03

TTGACTCTG
switch fluorescence ratio: 1.1

AAATGGGACA
switch fluorescence ratio: 1.04

TTTGCGTTTG
switch fluorescence ratio: 0.916

CTACAGGGAG
switch fluorescence ratio: 1

TTCATAAACG
switch fluorescence ratio: 1.03

GTCGATTGCC
switch fluorescence ratio: 1.02

AATTCATCGT
switch fluorescence ratio: 0.956

GGTACCGCGG
switch fluorescence ratio: 0.994

AGGCCTGTCC
switch fluorescence ratio: 1.02

CCGTAGTATT
switch fluorescence ratio: 4.75

ACGAAGAACT
switch fluorescence ratio: 1.03

TAAATTACGC
switch fluorescence ratio: 1.04

TACTTGGGAT
switch fluorescence ratio: 1.04

CAATTCCCAG
switch fluorescence ratio: 1.03

AATAGGAACC
switch fluorescence ratio: 0.997

GGTCCTGCTC
switch fluorescence ratio: 0.975

TGTCATAAGG
switch fluorescence ratio: 0.994

AAGCGCAACG
switch fluorescence ratio: 1.05

AAAAAGATGG
switch fluorescence ratio: 0.98

ATTTGCCACG
switch fluorescence ratio: 1.05

ATACTTCGGC
switch fluorescence ratio: 0.888

GATAACGCCG
switch fluorescence ratio: 0.975

GACAGCGAGC
switch fluorescence ratio: 1.02

TACGTAAAGC
switch fluorescence ratio: 1.44

TGGTCTATGG
switch fluorescence ratio: 1

GTACTAGTTT
switch fluorescence ratio: 0.993

CTGTGATCAT
switch fluorescence ratio: 1.02

AGCACGACCA
switch fluorescence ratio: 1.64

GAGATCACAC
switch fluorescence ratio: 1.01

TGGCCGAATC
switch fluorescence ratio: 0.962

AATGAGCGCA
switch fluorescence ratio: 1.04

TCCAGCTATA
switch fluorescence ratio: 1.64

CAGGCAGGAG
switch fluorescence ratio: 1.02

AGGCGAGAG
switch fluorescence ratio: 0.997

CGTCGGAACT
switch fluorescence ratio: 0.967

GACTTCTTAA
switch fluorescence ratio: 0.98

ATAAAATCCT
switch fluorescence ratio: 1.22

TCCCATTGCG
switch fluorescence ratio: 0.99

ATTTGATTTA
switch fluorescence ratio: 0.989

GATGATTCAG
switch fluorescence ratio: 0.98

AGTTCAGCGT
switch fluorescence ratio: 0.953

GCAAACAAAG
switch fluorescence ratio: 0.958

ACAATTTTGG
switch fluorescence ratio: 0.992

GGGGGTATTC
switch fluorescence ratio: 1.06

ACACCCCTGC
switch fluorescence ratio: 1.17

TGCGTTAGGG
switch fluorescence ratio: 1.01

CGGAGAGCCT
switch fluorescence ratio: 0.996

ATGAAATCCT
switch fluorescence ratio: 1.11

ACGTTCCTGA
switch fluorescence ratio: 1.07

TTGGAAGGCT
switch fluorescence ratio: 1.13

TACACTTTTG
switch fluorescence ratio: 1.01

TGGCGAAGGG
switch fluorescence ratio: 1.05

GCAGGCCAGT
switch fluorescence ratio: 1.11

ACCAGAGAGG
switch fluorescence ratio: 1.02

TACGACCGGG
switch fluorescence ratio: 1.02

CGTCAGGAGA
switch fluorescence ratio: 0.99

TTCTTGATGC
switch fluorescence ratio: 1.23

GTATGCTGCT
switch fluorescence ratio: 0.997

GCATCCGTTA
switch fluorescence ratio: 1.46

AAAATATGAA
switch fluorescence ratio: 1.02

ACCACCATTT
switch fluorescence ratio: 1.14

ACAATCCCAA
switch fluorescence ratio: 1.11

GTGTGCCGA
switch fluorescence ratio: 1.05

GGGGAGATCA
switch fluorescence ratio: 0.964

TGTTAGACCT
switch fluorescence ratio: 1.27

TATCTAGTAT
switch fluorescence ratio: 0.991

ACGGCACTGA
switch fluorescence ratio: 1.58

AATCATCGGA
switch fluorescence ratio: 0.993

GGCGCTAAAT
switch fluorescence ratio: 1.07

TGTATTACAC
switch fluorescence ratio: 1.03

AACCATTGAC
switch fluorescence ratio: 1.07

TCAGAAATTG
switch fluorescence ratio: 0.966

CGTAGTGGTC
switch fluorescence ratio: 1.05

GCTCGGCCCT
switch fluorescence ratio: 0.98

TCTTCTCTCA
switch fluorescence ratio: 1.01

TGGGCAACGC
switch fluorescence ratio: 0.998

AACATAATC
switch fluorescence ratio: 1.04

AGGGTAACGC
switch fluorescence ratio: 1.08

GTGGATA
switch fluorescence ratio: 1.02

GTTCTGTCTT
switch fluorescence ratio: 0.98

CGATACGGAT
switch fluorescence ratio: 0.984

GATAAGATAT
switch fluorescence ratio: 1.11

TGTGGCTTGC
switch fluorescence ratio: 1

CAGTGATTCG
switch fluorescence ratio: 1.01

GTATTTACCA
switch fluorescence ratio: 1.04

TTACTCTTAC
switch fluorescence ratio: 1.13

TCGCCTAAG
switch fluorescence ratio: 1.02

ACTCGTCAAT
switch fluorescence ratio: 3.13

TATTTTAACA
switch fluorescence ratio: 1.09

TTCGTCTGAC
switch fluorescence ratio: 1.03

CATTCACTTC
switch fluorescence ratio: 1.1

TACGACTAGG
switch fluorescence ratio: 1

GCGTCAGGTC
switch fluorescence ratio: 1.05

ATTATACGT
switch fluorescence ratio: 1.02

ACCGTCAGGC
switch fluorescence ratio: 1.02

AGTAGGGTCT
switch fluorescence ratio: 0.974

TGCAGGCGCT
switch fluorescence ratio: 0.986

GGATGAACGC
switch fluorescence ratio: 1.01

GCCATCCGAG
switch fluorescence ratio: 1.42

GGAGCCGCGA
switch fluorescence ratio: 1.18

CAACGGAGGA
switch fluorescence ratio: 1.02

AAGAAGGGA
switch fluorescence ratio: 0.997

CCTGAGCCCA
switch fluorescence ratio: 1.15

CTCGCCTATC
switch fluorescence ratio: 1.18

ATGGTGGGC
switch fluorescence ratio: 1.02

TAAGCTTACT
switch fluorescence ratio: 1.21

TCCAATAATT
switch fluorescence ratio: 0.966

GAAGTTTTAC
switch fluorescence ratio: 1.05

CTTTCATCGG
switch fluorescence ratio: 0.998

GTATCTGTGG
switch fluorescence ratio: 0.968

TCCCGTAAGC
switch fluorescence ratio: 2.92

AGCCACCGGG
switch fluorescence ratio: 1.17

ATATTGGCTT
switch fluorescence ratio: 1.02

TAACACATCA
switch fluorescence ratio: 0.992

TAGGTATAGG
switch fluorescence ratio: 0.974

TAGCCTCTGT
switch fluorescence ratio: 1.02

TCGCCTAGCC
switch fluorescence ratio: 1.06

TAAGTATTCA
switch fluorescence ratio: 1.09

ACACTTTTGG
switch fluorescence ratio: 1.03

CCGGGCGGGC
switch fluorescence ratio: 1.54

ACGAACATCT
switch fluorescence ratio: 1.27

TCCATTGCAT
switch fluorescence ratio: 1.45

ATTGGTATCC
switch fluorescence ratio: 0.978

TCCCAAGGGC
switch fluorescence ratio: 1.04

AGGAAATTCG
switch fluorescence ratio: 0.979

CGACTCCCAG
switch fluorescence ratio: 1.02

ACTATGACCT
switch fluorescence ratio: 1.29

CTGTAGCCTA
switch fluorescence ratio: 1.31

TTTATGGTGC
switch fluorescence ratio: 0.994

TGCTCCGATC
switch fluorescence ratio: 3.28

AAACACTCAT
switch fluorescence ratio: 1.06

GTAAGTTTGA
switch fluorescence ratio: 0.973

TACGGCATAG
switch fluorescence ratio: 1.15

ACGTGGGGAT
switch fluorescence ratio: 1.01

CGATACATAG
switch fluorescence ratio: 1.03

GGGTCAAACC
switch fluorescence ratio: 1.05

CATTTCATCG
switch fluorescence ratio: 1.01

TGCAGCAGTG
switch fluorescence ratio: 1.1

TCCGTGCAGC
switch fluorescence ratio: 2.93

GTAGTGCCGT
switch fluorescence ratio: 0.995

ATTCGTCGTA
switch fluorescence ratio: 1

ACAGGGCCCT
switch fluorescence ratio: 1.04

CGAAATCGGC
switch fluorescence ratio: 1.13

CCAGGGAAGC
switch fluorescence ratio: 1.03

AATTCAACTT
switch fluorescence ratio: 0.966

CTCAATCCGG
switch fluorescence ratio: 1.03

TGTAGCCCGT
switch fluorescence ratio: 0.971

AACGCAAAAT
switch fluorescence ratio: 1.79

TTGCAGGGAT
switch fluorescence ratio: 1.69

CGAAACGCCT
switch fluorescence ratio: 1.08

TTAGCTAAAT
switch fluorescence ratio: 0.982

ACCAGGCGGC
switch fluorescence ratio: 1.08

GTGCTCTTTT
switch fluorescence ratio: 1

GCTCGTGTTT
switch fluorescence ratio: 0.958

CTCTACGTCT
switch fluorescence ratio: 0.964

ATCTGATACT
switch fluorescence ratio: 1.03

AATCGCGCCT
switch fluorescence ratio: 1.05

ACTTTCTGC
switch fluorescence ratio: 1.01

GACGTCTCCA
switch fluorescence ratio: 0.953

TTAAAGCAAT
switch fluorescence ratio: 2.39

AGTGAATACC
switch fluorescence ratio: 1.07

ATAAATCCTG
switch fluorescence ratio: 0.999

TCTCTGTGAG
switch fluorescence ratio: 0.956

TCGCTTAGTC
switch fluorescence ratio: 1.14

From the supplement of paper PMC10126150
